According to PubChem BioAssay AID995 (National Center for Advancing Translational Sciences (NCATS), 2007):
Hit rate of the full screen: of about 72,000 compounds, about 710 (0.99%) were called active. The shares of active, inactive and inconclusive entries below differ from those in the screen. Calls follow the shape of the dose curve; as a rule, active = well fitted inhibition curve with a large enough effect; inconclusive = small, poorly fitted or top-dose-only effect; inactive = no such curve, though single readings can be large or run the other way. Potencies beside an inconclusive call are fits to weak or partial responses and may not hold up.

experiment: qHTS Assay for Inhibitors of the ERK Signaling Pathway using a Homogeneous Screening Assay; details: HEK293-V1b, vasopressin-stimulated pERK AlphaScreen; activity, negative = inhibition: at 57.5 µM (top of the series) unless noted; also: nearly all actives have a fitted effect of over 55% in size
In short: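 Overnight-seeded V1b-HEK293 cells in 1% FBS got compound, then vasopressin (25 nM final, 5 min, 37C), then lysis buffer. AlphaScreen detection of phospho-ERK; activity normalized to basal and full-stimulation controls.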
% is scaled to controls: 0 for no effect and ±100 for the full control effect; potency is read from the fitted curve at half-maximal effect; tags tell the direction and shape of the fitted curve.

Potency, inactive:
CC(=O)CC1OC(=O)C(Br)=C1NCc1ccccc1 (configuration not stated)
O=C(O)C(c1ccccc1)N1CCCC1 (configuration not stated)
COC(=O)[C@H]1C[C@@H]1[C@H](NC(=O)c1cc(C)nn1C)c1ccccc1
CCC(Cl)CC(Cl)C(Cl)C(Cl)C(Cl)C(C)Cl (configuration not stated)
COc1ccccc1NC(=O)N(Cc1ccco1)Cc1cc2ccc(C)c(C)c2[nH]c1=O
Cc1nn(-c2ccc(Cl)cc2)c2sc(C(=O)N3CCN(c4ccccn4)CC3)cc12
CCOCCN1CCN(c2c3c(nc4cc(-c5ccc(F)cc5)nn24)CCC3)CC1
CC(=O)NCCNc1ncncc1-c1ccccc1C(F)(F)F
CN[C@H](CC(=O)O)C(=O)O
CCCCNC(=O)CSc1nc2ccccc2c(=O)n1C1CCCC1
COC(=O)[C@@]1(Cc2ccc(OC)cc2)[C@H]2c3cc(C(=O)N4CCCC4)n(CCO)c3C[C@H]2CN1C(=O)c1ccccc1
O=C(O)/C=C\[C@H](O)c1ccc(Cl)cc1
NCC1O[C@@H](O[C@@H]2C(O)[C@H](O[C@H]3OC(CO)C(O)C(N)C3O)[C@@H](N)C[C@H]2N)C(N)C(O)C1O (some centres not stated)
O=c1oc2ccccc2c2oc3cc(O)c(O)cc3c12
COC1=Cc2c(ccc3ccc(=O)oc23)OC1(C)C
NC/C=C\C(=O)O
COC(=O)c1[nH]c2cc(C)ccc2c1NC(=O)CN1CCN(C(=O)c2ccco2)CC1
COCCn1c(=O)c(C)nc2cnc(Nc3ccccc3)nc21
CCOc1ccc(-c2cc(CCCC(=O)NCc3ccco3)no2)cc1
Oc1ccccc1C1Nc2cccc3cccc(c23)N1
CCc1cc2cc3c(cc2nc1SCC(=O)N1CCN(C(=O)c2ccco2)CC1)OCO3
CCC(c1nnnn1Cc1ccc2c(c1)OCO2)N1CCN(c2ccccc2)CC1 (configuration not stated)
CN1CCN(C(=O)c2cc(Cl)ccc2Cl)CC1

Potency, inconclusive:
COc1ccc(-c2nnc(SCC(=O)Nc3ccc(C)cc3)n2C)cc1 25.1 µM [inhibitor, single point]
OCCN1CCN(CC/C=C2\c3ccccc3Sc3ccc(C(F)(F)F)cc32)CC1 0.0126 µM [inhibitor, full curve, poor fit]
CCc1nc2c(sc3nc4c(cc32)COC(C)(C)C4)c(=O)n1Cc1ccco1 25.1 µM [inhibitor, single point]
COc1cc(-c2c(C#N)c(N)nc3c2CCCC3)ccc1O 15.8 µM [inhibitor, partial curve]
COc1ccc(Cl)cc1NC(=O)CSc1nnc(COc2ccccc2)n1C 25.1 µM [inhibitor, single point]
COc1ccc(S(=O)(=O)N2CCCC(C(=O)Nc3cccnc3)C2)cc1Cl (configuration not stated) 39.8 µM [inhibitor, single point]
N#CC1=C(SCc2ccccc2)NC(=O)CC1c1cccc(O)c1 (configuration not stated) 25.1 µM [inhibitor, partial curve]
c1cc2c(cc1Cn1cnnn1)OCO2 39.8 µM [inhibitor, single point]
Cc1cc(C)n(-c2ccc(C(=O)Nc3sccc3C(N)=O)cc2)n1 15.8 µM [inhibitor, partial curve]
C=CCSc1nnc(NC(=O)c2ccc(S(=O)(=O)NCC3CCCO3)cc2)s1 (configuration not stated) 2 µM [inhibitor, full curve, poor fit]
CCCCN1C(=O)c2ccc(C(=O)NC3=NCCS3)cc2C1=O 39.8 µM [inhibitor, partial curve]
Oc1ccc(-c2nc(-c3ccc(O)c(O)c3)cs2)cc1 15.8 µM [inhibitor, partial curve, poor fit]
N#CCCn1c2ccccc2c2nc3ccccc3nc21 12.6 µM [inhibitor, partial curve]
O=C(CSc1nnc(COc2cccc3cccnc23)o1)c1ccc(F)cc1 31.6 µM [inhibitor, single point]
COc1ncc2nc(-c3cccs3)c(=O)n(CCc3ccccc3)c2n1 1.26 µM [inhibitor, full curve, poor fit]
CC1CC(=O)C=C(O)C1C(=O)OC(C)(C)C (configuration not stated) 10 µM [inhibitor, partial curve]
COc1ccc(N2CCN(c3oc(-c4ccccc4OC)nc3C#N)CC2)cc1 20 µM [inhibitor, partial curve]
CCN1CCN(C(c2cccs2)C(C)NC(=O)c2cccnc2)CC1 (configuration not stated) 5.01 µM [inhibitor, full curve, poor fit]
OC(CN1CCNCC1)Cn1c2ccc(Br)cc2c2cc(Br)ccc21 (configuration not stated) 12.6 µM [inhibitor, partial curve]
COc1ccc(C(=O)N2CCC3(CCCN(c4ccncc4)C3)CC2)cc1 25.1 µM [inhibitor, partial curve, poor fit]
O=C(Cn1ccc2ccccc2c1=O)NCCC(=O)N1CCN(c2cccc(C(F)(F)F)c2)CC1 25.1 µM [inhibitor, single point]
CCOc1cc2c(cc1OCC)C(c1cc(OC)c(O)c(OC)c1)NCC2 (configuration not stated) 12.6 µM [inhibitor, partial curve]
O=C(COc1ccccc1)Nc1nc(-c2ccc(S(=O)(=O)N3CCOCC3)cc2)cs1 2.51 µM [inhibitor, partial curve]
COc1cccc(-n2c(SC)nnc2-c2cnccn2)c1 2.51 µM [inhibitor, partial curve]
O=C1CSC(c2cn(-c3ccccc3)nc2-c2ccc3c(c2)OCCO3)N1CCN1CCOCC1 (configuration not stated) 3.98 µM [inhibitor, partial curve]
COc1ccccc1CNc1nc(-c2ccoc2)nc2ccccc12 15.8 µM [inhibitor, partial curve, poor fit]
CCOc1ccc(C(C)=O)cc1Cn1nc(C(=O)O)c2ccccc2c1=O 25.1 µM [inhibitor, single point]
O=C(CCc1nc2ccccc2c(=O)[nH]1)OCC(=O)N1CCN(S(=O)(=O)c2ccccc2)CC1 25.1 µM [inhibitor, single point]
CCOc1ccc(CCNC(=O)C2CCN(c3nnc(-n4cccc4)s3)CC2)cc1OCC 0.199 µM [inhibitor, full curve, poor fit]
N#Cc1nc(COc2cccc(Cl)c2)oc1NCc1ccco1 39.8 µM [inhibitor, single point]
Cc1ccc(CNc2cc(-c3nn4c(C)nnc4s3)ccc2C)s1 0.126 µM [inhibitor, full curve, poor fit]
COc1ccccc1CNc1ncnc2ccc(-c3ccoc3)cc12 39.8 µM [inhibitor, single point]
COC(=O)c1sc(=S)n(-c2cccc(Cl)c2)c1N 3.98 µM [inhibitor, partial curve]
Cc1csc2c(C#N)c(=O)c3c(n12)CCC3 0.631 µM [inhibitor, partial curve]
O=C(C(Cc1ccccc1)n1cccc1)N1CCN(c2ncccn2)CC1 (configuration not stated) 20 µM [inhibitor, single point]
CCOC(=O)c1c(C)n(C)c2ccc(OCC(O)CN3C(=O)c4ccccc4S3(=O)=O)cc12 (configuration not stated) 39.8 µM [inhibitor, partial curve]
COc1nc(Nc2cccc(C(F)(F)F)c2)nc(OC)n1 25.1 µM [inhibitor, single point]
COc1cc(CN(C(=O)c2ccco2)c2ccc(C)cc2)ccc1O 0.0794 µM [inhibitor, full curve, poor fit]
CCN(CC)S(=O)(=O)c1ccc2c(c1)nc(SCc1nc3ccsc3c(=O)[nH]1)n2CC 1.26 µM [inhibitor, full curve]
Cc1ccc(Nc2ncc3c(n2)CC(c2ccco2)CC3=O)c(C)c1 (configuration not stated) 12.6 µM [inhibitor, partial curve]
Cc1ccc(C(C)C)c(OCC(=O)Nc2ccccc2N2CCN(C)CC2)c1 15.8 µM [inhibitor, single point]
COc1ccc(-c2nnn(CC(=O)N(Cc3cccs3)C(C)C(=O)NC3CCCC3)n2)cc1OC (configuration not stated) 25.1 µM [inhibitor, partial curve, poor fit]
c1cncc(-c2nc(NCc3ccco3)c3ccccc3n2)c1 10 µM [inhibitor, partial curve]
CC(=O)Nc1ccc(-n2c(C)c(C(C)=O)c(C(C)=O)c2C)cc1 15.8 µM [inhibitor, partial curve]

Potency, active:
CC(C)(C)Cn1nc(-c2ccc(Cl)cc2)c2c(N)ncnc21 15.8 µM
O=C(c1ccccc1C(=O)N1CCN(c2ccc(F)cc2)CC1)N1CCN(c2ccc(F)cc2)CC1 39.8 µM
N#Cc1cccc(-c2nc(NCc3ccccc3)c3ccccc3n2)c1 20 µM
O=C(/C=C/c1ccc(O)cc1)c1ccccc1O 3.98 µM

activity, negative = inhibition, inconclusive:
CN(C(=O)C1CCCO1)c1nnc(-c2ccncc2)s1 (configuration not stated) -33.8% [inhibitor]
